Data: the supplement of paper PMC9446081
Screen size: about 39,000 compounds; about 220 (0.56%) showed activity. Some of the results follow.

tested on: Escherichia coli K-12 BW25113; test: relative growth (OD600 normalised to plate interquartile mean) (fraction); higher = less growth inhibition, active = 0.2 or less; conditions: 50 µM; LB; incubation time: overnight (16-24 h)
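Further: static incubation at 37 °C against the wild-type strain, values averaged over two biological replicates.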

| Structure (SMILES) | relative growth |
| --- | --- |
| Cc1noc(C)c1NC(=O)N(C)C[C@@H]1Oc2cc(C#CCN(C)C)ccc2S(=O)(=O)N([C@@H](C)CO)C[C@@H]1C | inactive: 0.942 |
| C[C@H](CO)N1C[C@H](C)[C@H](CN(C)C(=O)Cc2ccncc2)Oc2cc(-c3cncnc3)ccc2S1(=O)=O | inactive: 1.03 |
| C[C@@H]1CN([C@@H](C)CO)S(=O)(=O)c2ccc(Br)cc2O[C@H]1CN(C)C(=O)c1ccccc1F | inactive: 0.987 |
| CN1[C@@H]2Cn3c(ccc(-c4ccccc4)c3=O)[C@H]1[C@@H](C(=O)NCCCN1CCOCC1)[C@@H]2CO | inactive: 1 |
| C[C@@H]1CN([C@H](C)CO)S(=O)(=O)c2ccc(C#Cc3cccc(F)c3)cc2O[C@@H]1CN(C)S(=O)(=O)c1cn(C)cn1 | inactive: 1.02 |
| C[C@@H]1CN([C@@H](C)CO)C(=O)c2cc(NS(C)(=O)=O)ccc2O[C@@H](C)CCCCO[C@@H]1CN(C)S(=O)(=O)c1ccccc1 | inactive: 0.98 |
| Cc1noc(C)c1NC(=O)N[C@@H]1CC[C@H](CC(=O)NCCCN(C)C)O[C@H]1CO | inactive: 0.984 |
| O=C(N/N=C/[C@H](O)[C@@H](O)[C@H](O)CO)c1ccccn1 | inactive: 0.991 |
| COc1ccc(S(=O)(=O)Nc2cccc3c2O[C@@H](CN(C)S(=O)(=O)c2cn(C)cn2)[C@@H](C)CN([C@H](C)CO)C3=O)cc1 | inactive: 1 |
| C[C@@H]1O[C@H](Oc2cc(O)c3c(=O)c(O[C@H]4O[C@H](CO)[C@H](O)[C@H](O)[C@@H]4O[C@@H]4O[C@H](C)[C@@H](O)[C@H](O)[C@@H]4O)c(-c4ccc(O)c(O)c4)oc3c2)[C@@H](O)[C@H](O)[C@@H]1O | inactive: 1.04 |
| C[C@H]1CN([C@@H](C)CO)C(=O)c2c(c3ccccc3n2C)-c2ccccc2CO[C@@H]1CN(C)Cc1cccc(F)c1 | inactive: 0.962 |
| COc1ccc(OCCN2CCC(C(=O)N[C@@H](c3ccc(F)cc3)c3ccc4ccccc4n3)CC2)cc1 | inactive: 0.985 |
| CC(C)NC(=O)Nc1cccc2c1O[C@@H](CN(C)C(=O)Nc1ccc3c(c1)OCO3)[C@H](C)CN([C@H](C)CO)C2=O | inactive: 0.993 |
| COc1ccc(C#Cc2ccc3c(c2)O[C@H](CN(C)C(=O)CN2CCOCC2)[C@H](C)CN([C@H](C)CO)S3(=O)=O)cc1 | inactive: 1.01 |
| C[C@@H]1CN([C@H](C)CO)C(=O)c2cccc(NC(=O)Nc3cccc4ccccc34)c2O[C@@H]1CN(C)C(=O)Nc1ccccc1 | inactive: 1.02 |
| C[C@H](CO)N1C[C@H](C)[C@@H](CN(C)C(=O)Nc2ccc3c(c2)OCO3)Oc2ccc(NS(C)(=O)=O)cc2CC1=O | inactive: 0.935 |
| COC(=O)CNC(=O)c1ccc(F)cc1 | inactive: 0.997 |
| C[C@H](CO)N1C[C@H](C)[C@@H](CN(C)C(=O)C2CC2)Oc2cc(-c3ccc(C(=O)N(C)C)cc3)ccc2S1(=O)=O | inactive: 0.989 |
| C[C@@H]1CCCCO[C@@H](CN(C)Cc2ccc(C(=O)O)cc2)[C@H](C)CN([C@@H](C)CO)C(=O)c2cc(NC(=O)Nc3cccc4ccccc34)ccc2O1 | inactive: 0.984 |
| Cc1noc(C)c1S(=O)(=O)Nc1ccc2c(c1)CC(=O)N([C@@H](C)CO)C[C@@H](C)[C@@H](CN(C)C(=O)Nc1ccc3c(c1)OCO3)O2 | inactive: 0.981 |

| Structure (SMILES) | relative growth |
| --- | --- |
| CN(C)C/C=C/C(=O)Nc1ccc(C(=O)Nc2cccc(Nc3ncc(Cl)c(-c4c[nH]c5ccccc45)n3)c2)cc1 | inactive: 1.02 |
| CC(C)NC(=O)N(C)C[C@@H]1Oc2ccc(NS(=O)(=O)c3cn(C)cn3)cc2C(=O)N([C@H](C)CO)C[C@@H]1C | inactive: 0.967 |
| C=CCC[C@H](Cc1ccc(F)cc1)C(=O)OC[C@H](Cc1c[nH]c2ccccc12)NC(=O)[C@H](CC=C)CC(=O)N(CCO)Cc1ccccc1 | inactive: 1.09 |
| Brc1ccc(-c2cc3n(c2)CCc2ccccc2-3)cc1 | inactive: 1.04 |
| O=C(NCC[C@H]1CC[C@@H](NS(=O)(=O)c2cccc(F)c2)[C@@H](CO)O1)C1CC1 | inactive: 0.996 |
| O=c1[nH]nc(Br)c(=O)[nH]1 | inactive: 0.983 |
| OC[C@H]1O[C@@H](n2cnc3c(NC4CCCC4)ncnc32)[C@H](O)[C@@H]1O | inactive: 0.996 |
| COc1ccc(-c2cnc3c(c2)C(=O)N([C@H](C)CO)C[C@@H](C)[C@@H](CN(C)C(=O)C2CCOCC2)O3)cc1 | inactive: 0.984 |
| C[N+](C)(C)CCO.Cn1c(=O)c2[n-]cnc2n(C)c1=O | inactive: 1.06 |
| CC[C@H]1OC(=O)[C@H](C)[C@@H](O[C@H]2C[C@@](C)(OC)[C@@H](O)[C@H](C)O2)[C@H](C)[C@@H](O[C@@H]2O[C@H](C)C[C@H](N(C)C)[C@H]2O)[C@](C)(O)C[C@@H](C)C(=O)[C@H](C)[C@@H](O)[C@]1(C)O | active: 0.0484 |
| C[C@@H]1CCCCO[C@@H](CN(C)Cc2ccc(C(=O)Nc3ccccc3N)cc2)[C@@H](C)CN([C@@H](C)CO)C(=O)c2cc(N(C)C)ccc2O1 | inactive: 0.994 |
| C[C@H]1CN([C@@H](C)CO)C(=O)Cc2cc(NC(=O)NC3CCCCC3)ccc2O[C@H]1CN(C)S(C)(=O)=O | inactive: 1 |
| Cl.NC(Cc1ccc(O)cc1)C(=O)O (stereo not given) | inactive: 0.85 |
| Cl.NCCS | inactive: 1.04 |
| C[C@@H]1CCCCO[C@@H](CN(C)CC2CCCCC2)[C@H](C)CN([C@@H](C)CO)C(=O)c2cc(NS(=O)(=O)c3ccccc3)ccc2O1 | inactive: 1.01 |
| C[C@@H]1CN([C@H](C)CO)C(=O)c2cc(NC(=O)CCCCCC(=O)Nc3ccccc3N)ccc2O[C@H]1CN(C)CC1CCCCC1 | inactive: 0.965 |
| Cc1noc(C)c1S(=O)(=O)N(C)C[C@H]1Oc2ccc(NC(=O)Cc3ccccc3)cc2CC(=O)N([C@H](C)CO)C[C@@H]1C | inactive: 1.03 |
| C[C@H](CO)N1C[C@H](C)[C@H](CN(C)C(=O)Nc2ccc(C(C)(C)C)cc2)OCc2cnnn2CCCC1=O | inactive: 1 |
| Brc1ccc2nc(N3CCCN(Cc4ccccc4)CC3)nc(NC3CCN(Cc4ccccc4)CC3)c2c1 | inactive: 0.25 |
| O=C(CN1CCOCC1)N[C@@H]1CC[C@H](CCn2cc(C3CC3)nn2)O[C@@H]1CO | inactive: 0.953 |

| Structure (SMILES) | relative growth |
| --- | --- |
| COc1ccc(S(=O)(=O)N(C)C[C@H]2OCCCC[C@H](C)Oc3ccc(NC(=O)Nc4c(C)noc4C)cc3C(=O)N([C@H](C)CO)C[C@@H]2C)cc1 | inactive: 0.977 |
| C[C@@H]1CN([C@@H](C)CO)C(=O)Cc2cc(NC(=O)Nc3cccc4ccccc34)ccc2O[C@@H]1CN(C)C(=O)Nc1ccc2c(c1)OCO2 | inactive: 1.01 |
| CN(C=O)CP(=O)(O)CN1CCCCC1 | inactive: 1.03 |
| COc1ccc(C#Cc2cnc3c(c2)C(=O)N([C@@H](C)CO)C[C@H](C)[C@@H](CN(C)CC2CCOCC2)O3)cc1 | inactive: 1.02 |
| C[C@H](CO)N1C[C@H](C)[C@@H](CN(C)C(=O)c2ccccc2)OCCCC[C@H](C)Oc2ccc(NC(=O)Nc3ccccc3)cc2C1=O | inactive: 1.01 |
| Cc1ccc(S(=O)(=O)N(C)C[C@@H]2Oc3ccc(NS(C)(=O)=O)cc3CC(=O)N([C@@H](C)CO)C[C@H]2C)cc1 | inactive: 1.02 |
| NCCCC[C@H](NC(=O)[C@@H]1CCCN1C(=O)[C@@H]1CSSC[C@H](N)C(=O)N[C@@H](Cc2ccc(O)cc2)C(=O)N[C@@H](Cc2ccccc2)C(=O)N[C@@H](CCC(N)=O)C(=O)N[C@@H](CC(N)=O)C(=O)N1)C(=O)NCC(N)=O | inactive: 0.996 |
| C[C@@H]1CN([C@H](C)CO)C(=O)Cc2cc(NC(=O)Cn3cnnn3)ccc2O[C@@H]1CN(C)S(C)(=O)=O | inactive: 0.978 |
| C[C@@H]1CCCCO[C@H](CN(C)C(=O)NC2CCCCC2)[C@H](C)CN([C@@H](C)CO)C(=O)c2cc(NC(=O)c3ccncc3)ccc2O1 | inactive: 0.95 |
| COc1ccc(COC[C@]23NC(=S)N[C@H](c4ccccc4O2)[C@H]3COC(=O)NCCCCCC(=O)NO)cc1 | inactive: 0.994 |
| CC(=O)Oc1cccc(O)c1 | inactive: 1.03 |
| O=c1[nH][nH]c(=O)c(Cl)c1Cl | inactive: 0.999 |
| C[C@@H]1CCCCO[C@@H](CN(C)C(=O)Nc2cccc3ccccc23)[C@H](C)CN([C@@H](C)CO)C(=O)c2cc(NC(=O)Nc3cccc4ccccc34)ccc2O1 | inactive: 0.875 |
| COc1ccc(S(=O)(=O)N(C)C[C@@H]2OCCCC[C@@H](C)Oc3ccc(NC(=O)Nc4c(C)noc4C)cc3C(=O)N([C@@H](C)CO)C[C@@H]2C)cc1 | inactive: 1.02 |
| Cc1noc(C)c1NC(=O)N(C)C[C@H]1OCCCC[C@H](C)Oc2ccc(NC(=O)Nc3ccc(C(F)(F)F)cc3)cc2C(=O)N([C@H](C)CO)C[C@@H]1C | inactive: 1.03 |
| CC(=O)N/C=C1\C(=O)N(C)C(=O)C(C#N)=C1C | inactive: 1.04 |
| C[C@@H]1CN([C@H](C)CO)C(=O)c2cc(Br)cnc2O[C@H]1CN(C)C(=O)Nc1ccc2c(c1)OCO2 | inactive: 1.01 |
| C[C@@H]1CN([C@@H](C)CO)C(=O)Cc2cc(NC(=O)Nc3cccc4ccccc34)ccc2O[C@H]1CN(C)C(=O)Nc1cccc2ccccc12 | inactive: 0.983 |
| C[C@@H]1CN([C@@H](C)CO)C(=O)c2cc(NC(=O)c3ccccc3)ccc2O[C@@H](C)CCCCO[C@H]1CN(C)C(=O)Nc1ccccc1 | inactive: 1.02 |
| C[C@@H]1CN([C@H](C)CO)C(=O)c2cccc(NS(=O)(=O)c3ccc(F)cc3)c2O[C@@H]1CN(C)S(=O)(=O)c1cn(C)cn1 | inactive: 0.99 |
